Hit rate of the full screen: of about 3,200 compounds, about 75 (2%) showed an effect of 50% or more. This is one part of the list.

In this test the test system is T1, S. aureus MSSA476.
T1 construct: MSSA476
On the set-up: species or system S. aureus MSSA476 (TSB) or V. cholerae SAD30 (LB); 384-well bacterial growth screen at 25 uM, OD600 relative to DMSO control. The following applies: relative growth, OD600, TSB; 25 µM; inhibitor.
As to `CCC(C)c1ccccc1NC(=O)C(C)Cl` (centres unmarked) [4-O10, N-[2-(butan-2-yl)phenyl]-2-chloropropanamide], the “% of control remaining” value turned out to be 107.099%.
For the compound `C=CC(=O)Nc1cc(OC)cc(S(C)(=O)=O)c1` [1-H16, N-(3-methanesulfonyl-5-methoxyphenyl)prop-2-enamide], the “% of control remaining” value is recorded as 109.714%.
Turning to `CCCSc1nsc(NC(=O)CCl)n1` [4-G15, 2-chloro-N-[3-(propylsulfanyl)-1,2,4-thiadiazol-5-yl]acetamide], the “% of control remaining” value stood at 106.717%.
Next, `Cl.O=C(CCl)Nc1cccnn1` [6-O17, 2-chloro-N-(pyridazin-3-yl)acetamide hydrochloride]: 75.4634%; `O=C1C=CC(=O)N1c1ccccc1Sc1ccccc1` [10-K12, 1-[2-(phenylsulfanyl)phenyl]-2,5-dihydro-1H-pyrrole-2,5-dione]: 129.063%; `CC(Cl)C(=O)N1CCCCCC1c1noc(-c2cnn(C)c2)n1` (centres unmarked) [7-C05, 2-chloro-1-{2-[5-(1-methyl-1H-pyrazol-4-yl)-1,2,4-oxadiazol-3-yl]azepan-1-yl}propan-1-one]: 104.553%.
Consider `Cc1ccc(CNC(=O)C(C)Cl)c2ccccc12` (centres unmarked) [7-O10, 2-chloro-N-[(4-methylnaphthalen-1-yl)methyl]propanamide], for which the “% of control remaining” value was 96.3893%.
Regarding `CC(Cl)C(=O)Nc1nc(-c2cccc([N+](=O)[O-])c2)cs1` (centres unmarked) [4-E08, 2-chloro-N-[4-(3-nitrophenyl)-1,3-thiazol-2-yl]propanamide], the “% of control remaining” value is given as 115.102%.
In the case of `O=C(CCl)NCC1CC(=O)N(c2ccccc2)C1` (centres unmarked) [5-A09, 2-chloro-N-[(5-oxo-1-phenylpyrrolidin-3-yl)methyl]acetamide], the “% of control remaining” value was 88.5246%.
As to `C[C@@H](NC(=O)CCl)c1ccc(F)cc1` [6-G21, 2-chloro-N-[(1R)-1-(4-fluorophenyl)ethyl]acetamide], the “% of control remaining” value is 93.9024%.
Next, `O=C(CCl)N(Cc1ccccc1)c1ccccc1` [4-G13, N-benzyl-2-chloro-N-phenylacetamide]: 77.7513%; `CCOC(=O)C1=C(C)NC(=O)N(C(=O)CCl)C1c1ccccc1` (centres unmarked) [5-I05, ethyl 3-(2-chloroacetyl)-6-methyl-2-oxo-4-phenyl-1,2,3,4-tetrahydropyrimidine-5-carboxylate]: 107.468%; `O=C(CCl)NC(Cc1ccccc1)C(=O)O` (centres unmarked) [6-C13, 2-(2-chloroacetamido)-3-phenylpropanoic acid]: 99.7073%.
As to `C=CC(=O)N[C@H]1CCN(S(=O)(=O)c2ccccc2)C1` [3-P11, N-[(3S)-1-(benzenesulfonyl)pyrrolidin-3-yl]prop-2-enamide], the “% of control remaining” value turned out to be 99.2599%.
Next, `C=CC(=O)N1CCC(C(=O)NCc2nccn2C)(c2ccccc2)CC1` [3-I10, N-[(1-methyl-1H-imidazol-2-yl)methyl]-4-phenyl-1-(prop-2-enoyl)piperidine-4-carboxamide]: 94.7323%; `Cc1cc(C=C(C#N)C(=O)Nc2cn[nH]c2)c(C)n1-c1ccc(F)cc1` [9-N07, 2-cyano-3-[1-(4-fluorophenyl)-2,5-dimethyl-1H-pyrrol-3-yl]-N-(1H-pyrazol-4-yl)prop-2-enamide]: 60.2247%.
For `C=CC(=O)N1CCC(C(=O)N[C@H]2CCCCCC[C@H]2C(=O)OC)CC1` (racemic) [2-H06, rac-methyl (1R,2S)-2-[1-(prop-2-enoyl)piperidine-4-amido]cyclooctane-1-carboxylate], the “% of control remaining” value is reported as 77.9809%.
Turning to `CC(Cl)C(=O)NCC(=O)N(C)Cc1cccnc1` (centres unmarked) [7-P15, 2-chloro-N-({methyl[(pyridin-3-yl)methyl]carbamoyl}methyl)propanamide], the “% of control remaining” value is recorded as 117.111%.
As for `Cc1ccc(C(=O)C(C)Cl)cc1` (centres unmarked) [10-F20, 2-chloro-1-(4-methylphenyl)propan-1-one], the “% of control remaining” value came to 110.938%.
In the case of `Cc1ccc(NC(=O)C(C#N)=Cc2ccc(C)s2)cc1` [8-K13, 2-cyano-N-(4-methylphenyl)-3-(5-methylthiophen-2-yl)prop-2-enamide], the “% of control remaining” value stood at 94.6058%.
Turning to `CC(Cl)C(=O)NCc1nc2cccnc2n1C` (centres unmarked) [7-O17, 2-chloro-N-({3-methyl-3H-imidazo[4,5-b]pyridin-2-yl}methyl)propanamide], the “% of control remaining” value worked out at 101.727%.
`COc1ccc(N2C(=O)C=CC2=O)c(OC)c1` [10-J15, 1-(2,4-dimethoxyphenyl)-2,5-dihydro-1H-pyrrole-2,5-dione]: the “% of control remaining” value was 121.875%.
Next, `C=CCNC(=O)C(C#N)=Cc1sccc1C` [9-P07, 2-cyano-3-(3-methylthiophen-2-yl)-N-(prop-2-en-1-yl)prop-2-enamide]: 115.955%.
As to `CC(Cl)C(=O)NC(c1cccc(C(F)(F)F)c1)c1nnc[nH]1` (centres unmarked) [7-M17, 2-chloro-N-[(4H-1,2,4-triazol-3-yl)[3-(trifluoromethyl)phenyl]methyl]propanamide], the “% of control remaining” value worked out at 109.576%.
Take `COC(=O)c1c(NC(=O)CCl)sc(Cl)c1-c1ccccc1` [4-E20, methyl 5-chloro-2-(2-chloroacetamido)-4-phenylthiophene-3-carboxylate]: the “% of control remaining” value turned out to be 117.008%.
The result for `N#CC(=Cc1ccco1)C(=O)NCc1ccc(-c2cccnc2)cc1` [9-F16, 2-cyano-3-(furan-2-yl)-N-{[4-(pyridin-3-yl)phenyl]methyl}prop-2-enamide] reads 69.8127%; that for `C=CC(=O)N(CC)CC(=O)N1CCNC(=O)C1c1cccs1` (centres unmarked) [3-G07, N-ethyl-N-{2-oxo-2-[3-oxo-2-(thiophen-2-yl)piperazin-1-yl]ethyl}prop-2-enamide], 93.6874%; that for `COc1cc(C=C(C#N)C(=O)Nc2ccc(Cl)cc2)cc(OC)c1` [8-K16, N-(4-chlorophenyl)-2-cyano-3-(3,5-dimethoxyphenyl)prop-2-enamide], 107.552%.
Consider `CC(NC(=O)C(C#N)=Cc1cc(F)ccc1F)c1ccccc1` (centres unmarked) [8-O06, 2-cyano-3-(2,5-difluorophenyl)-N-(1-phenylethyl)prop-2-enamide], for which the “% of control remaining” value is 104.564%.
The result for `C=CC(=O)N1CCCC(c2nc(N(C)C)no2)C1` (centres unmarked) [3-A13, 1-{3-[3-(dimethylamino)-1,2,4-oxadiazol-5-yl]piperidin-1-yl}prop-2-en-1-one] reads 95.4288%; that for `C=CC(=O)N1C[C@H](NC(C)=O)[C@@H](c2ccnn2C)C1` (racemic) [2-M16, rac-N-[(3R,4S)-4-(1-methyl-1H-pyrazol-5-yl)-1-(prop-2-enoyl)pyrrolidin-3-yl]acetamide], 90.5135%; that for `Cc1cccc(C=C(C#N)C(=O)NC2CCCCC2)c1` [8-K07, 2-cyano-N-cyclohexyl-3-(3-methylphenyl)prop-2-enamide], 103.568%.
For `C=CC(=O)N1CCC(C(=O)N2CCCC2COC)CC1` (centres unmarked) [2-E12, 1-{4-[2-(methoxymethyl)pyrrolidine-1-carbonyl]piperidin-1-yl}prop-2-en-1-one], the “% of control remaining” value turned out to be 120.104%.
Regarding `C=CC(=O)N(CC)CC(=O)NC1CCN(C(C)=O)c2ccccc21` (centres unmarked) [2-N06, N-{[(1-acetyl-1,2,3,4-tetrahydroquinolin-4-yl)carbamoyl]methyl}-N-ethylprop-2-enamide], the “% of control remaining” value was determined as 128.46%.
The result for `Cc1ncccc1OCC1CCCN1C(=O)C(C)Cl` (centres unmarked) [7-C18, 2-chloro-1-(2-{[(2-methylpyridin-3-yl)oxy]methyl}pyrrolidin-1-yl)propan-1-one] reads 104.239%; that for `N#CC(=Cc1ccc(C#N)cc1)C(=O)Nc1cccc(Cl)c1Cl` [8-J05, 2-cyano-3-(4-cyanophenyl)-N-(2,3-dichlorophenyl)prop-2-enamide], 125.477%; that for `C=CC(=O)Nc1cc(C(=O)O)ccc1O` [1-A12, 4-hydroxy-3-(prop-2-enamido)benzoic acid], 127.648%.
`C=CC(=O)Nc1ccc(C(=O)N2CCCCC2CS(C)(=O)=O)cc1` (centres unmarked) [2-N18, N-{4-[2-(methanesulfonylmethyl)piperidine-1-carbonyl]phenyl}prop-2-enamide]: the “% of control remaining” value stood at 110.357%.
For `C=CC(=O)N(C)Cc1cn(C)nc1C(C)C` [3-F15, N-methyl-N-{[1-methyl-3-(propan-2-yl)-1H-pyrazol-4-yl]methyl}prop-2-enamide], the “% of control remaining” value stood at 119.808%.
With `C=CC(=O)N(Cc1c(C)nn(CC)c1C)c1ccc2c(c1)COC2` [2-G13, N-(1,3-dihydro-2-benzofuran-5-yl)-N-[(1-ethyl-3,5-dimethyl-1H-pyrazol-4-yl)methyl]prop-2-enamide], the “% of control remaining” value is listed as 106.179%.
Next, `C=CC(=O)NCc1coc(-c2cccs2)n1` [1-C07, N-{[2-(thiophen-2-yl)-1,3-oxazol-4-yl]methyl}prop-2-enamide]: 96%; `N#CC(=Cc1ccc(C#N)cc1)C(=O)N1CCCC1` [9-P21, 4-[2-cyano-2-(pyrrolidine-1-carbonyl)eth-1-en-1-yl]benzonitrile]: 91.6854%.
Regarding `Cc1ccc(NC(=O)C(C#N)=Cc2ccc(C)s2)c(C)c1` [8-D09, 2-cyano-N-(2,4-dimethylphenyl)-3-(5-methylthiophen-2-yl)prop-2-enamide], the “% of control remaining” value was found to be 105.56%.
For the compound `Cn1cc(C=C(C#N)C(=O)NCc2ccco2)cn1` [8-L06, 2-cyano-N-[(furan-2-yl)methyl]-3-(1-methyl-1H-pyrazol-4-yl)prop-2-enamide], the “% of control remaining” value is 120.166%.
